{"source": "paper PMC3927447", "about": "(Developmental cell, 2014)", "target": "mouse 6His-BuGZ co-expressed with Bub3 in Sf9 cells (mouse, UniProt Q9JMD0 1-495)", "sequence (Q9JMD0 whole entry)": "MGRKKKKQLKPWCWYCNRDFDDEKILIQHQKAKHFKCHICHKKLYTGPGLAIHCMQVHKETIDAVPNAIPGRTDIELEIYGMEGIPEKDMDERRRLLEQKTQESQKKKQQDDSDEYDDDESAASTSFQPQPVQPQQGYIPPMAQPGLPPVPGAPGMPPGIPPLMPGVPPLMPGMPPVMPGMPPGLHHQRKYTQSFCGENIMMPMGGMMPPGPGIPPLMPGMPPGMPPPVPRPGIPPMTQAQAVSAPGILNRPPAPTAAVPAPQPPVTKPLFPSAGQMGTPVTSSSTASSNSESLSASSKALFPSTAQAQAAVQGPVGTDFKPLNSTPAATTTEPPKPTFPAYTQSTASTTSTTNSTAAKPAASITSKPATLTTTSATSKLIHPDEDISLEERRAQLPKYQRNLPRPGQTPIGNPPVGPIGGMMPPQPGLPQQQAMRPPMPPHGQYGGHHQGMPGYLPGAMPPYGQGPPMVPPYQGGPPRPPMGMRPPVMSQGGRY", "assay": "SEC", "data": [{"binder": "untagged mouse Bub3 co-expressed with 6His-BuGZ in Sf9 cells (natural protein) not shown", "values": [{"measurement": "stoichiometry N", "value": 1}]}]}
